# Test results: PubChem BioAssay AID1347073 (National Center for Advancing Translational Sciences (NCATS), 2019)
# In all, about 45,000 compounds went through this assay and about 200 (0.44%) were called active. About 7% were inconclusive and are not listed. Calls follow the shape of the dose curve; as a rule, active = well fitted activation curve with a large enough effect; inconclusive = small, poorly fitted or top-dose-only effect; inactive = no such curve, though single readings can be large or run the other way. This is one part of the list.
# Assay: qHTS of TDP-43 Inhibitors: NCGC Sytravon Library Screen; also: 0% is about no effect; nearly all actives have a fitted effect of over 55% in size
# Settings: yeast TDP-43 toxicity rescue, BacTiter-Glo growth, 24 h; series mostly up to 46.1 µM; growth rescue (activation): at the top concentration
# In short: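 TDP-43-expressing yeast, pregrown in raffinose, seeded at OD600 0.02 in galactose medium with compound for 24 hr at 30 deg C. Growth read by BacTiter-Glo luminescence, so rescue of toxicity appears as activation.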
row,Compound,growth rescue (activation)
1,Cc1cccc(C(=O)Nc2cccc(C(=O)N/N=C/c3ccc4c(c3)OCO4)c2)c1,inactive: 0.885%
2,COc1ccc(S(=O)(=O)NCC2CCCO2)cc1C(=O)O (stereo not drawn),inactive: -8.92%
3,COCCN(C(=O)CNC(=O)c1ccco1)C(C(=O)NC1CCCC1)c1ccc(F)cc1 (stereo not drawn),inactive: 9.27%
4,COc1ccc(CNC(=O)CN2C(=O)c3ccccc3S2(=O)=O)cc1,inactive: -1.25%
5,CN(C)C(=O)C(OC(=O)c1ccc2c(c1)CCCC2)c1ccccc1 (stereo not drawn),inactive: 22.2%
6,COc1cc(/C=N/NC(=O)C[n+]2ccccc2)cc(OC)c1OC,inactive: 16.3%
7,O=C(NCCO)Nc1ccc(Cl)cc1,inactive: -9.31%
8,COC(=O)C1=NNC2C(=O)N(c3ccc(C)cc3)C(=O)C12 (stereo not drawn),inactive: -6.22%
9,O=C(NCc1ccccc1)C1CCCN(c2nc3ccsc3c(=O)s2)C1 (stereo not drawn),inactive: 4.28%
10,Cc1ccc(CNC(=O)COC(=O)c2cccnc2Cl)cc1,inactive: -9.84%
11,CC1(C(=O)Nc2cnc3ccccc3c2)CCN1Cc1ccc2ccccc2c1 (stereo not drawn),inactive: -1.31%
12,CN(C)CCCN(Cc1ccccc1)C(=S)Nc1ccc(OC(F)F)cc1,inactive: 9.55%
13,Cc1cccc(N2C(=O)C(O)=C(C(=O)c3cccs3)C2c2cccc(Oc3ccccc3)c2)n1 (stereo not drawn),inactive: -1.3%
14,CCc1ccc(C(=O)CSc2nc(C)cc(=O)[nH]2)cc1,inactive: 17.9%
15,COc1ccccc1NC(=O)CSc1n[nH]c(-c2cccnc2)n1,inactive: -1.11%
16,COC(=O)C1(C(F)(F)F)C2C=CC(C2)N1S(=O)(=O)c1ccc(C)cc1 (stereo not drawn),inactive: -1.37%
17,NC(=O)NC(CC(=O)N1CCc2ccccc2C1)c1ccc(Cl)cc1 (stereo not drawn),inactive: 7.4%
18,COCCNC(=O)C1(C)CCCN(Cc2cccc(OC(=O)c3ccccc3)c2)C1 (stereo not drawn),inactive: -0.778%
19,COc1ccc(NC(C)=O)cc1S(=O)(=O)Nc1ccc(S(=O)(=O)N2CCCCC2)cc1,inactive: 2.57%
20,c1ccc(CCNc2nc(-c3ccccn3)nc3ccccc23)cc1,inactive: 14.2%
21,COc1ccc2c(c1)S(=O)(=O)c1ccccc1N2,inactive: 17.6%
22,CCOC(=O)/C=C/C(=O)OCC(=O)Nc1cccc(Cl)c1Cl,inactive: 30%

row,Compound,growth rescue (activation)
1,C=CCN(Cc1ccc(OC)c(OC)c1)C(=O)N1CCOCC1,inactive: 8.28%
2,COc1cccc(CSc2nc3cc4c(cc3cc2C)OCCO4)c1,inactive: 19.9%
3,Cc1cc(C)nc(/N=C(\N)Nc2ccc(S(=O)(=O)Nc3nccc(C)n3)cc2)n1,inactive: -2.89%
4,Nc1nnnn1/N=C/c1ccc(N2CCCCC2)c([N+](=O)[O-])c1,inactive: 23.1%
5,CSc1oc(-c2ccco2)nc1S(=O)(=O)c1ccc(C)cc1,inactive: 12.1%
6,O=C(NC(=S)Nc1ccc(N2CCOCC2)c(Cl)c1)c1cccs1,inactive: 6.27%
7,O=C1NC2(CCC3(CC2)OCCO3)NN1c1ccc(Cl)cc1,inactive: -5.21%
8,CC(C)c1ccc(CN2CCN(C(=O)CCl)CC2)cc1,inactive: -6.4%
9,COc1ccc(O)c(/C=N/NC(=S)NCCc2ccccc2)c1,inactive: 18%
10,O=C(O)c1ccccc1C(=O)Nc1ccc(Br)c2cccnc12,inactive: 2.23%
11,COc1ccc(C(=O)NNC(=O)CCC(=O)Nc2ccc(C)cc2C)cc1,inactive: 0.247%
12,CN(C)S(=O)(=O)c1ccc(C(=O)Nc2ccn(C)n2)cc1,inactive: -1.27%
13,COC(=O)CSc1n[nH]c(=S)s1,inactive: -4.42%
14,CCc1noc(C)c1C(=O)Nc1sc(C(=O)N(C)C)c(C)c1C#N,inactive: 10.8%
15,CC1CN(C(=O)N(C)C)CCN1C(=O)N(C)C (stereo not drawn),inactive: 2.13%
16,O=C(Nc1cccc(S(=O)(=O)NC2=NCCC2)c1)c1ccccc1F,inactive: 4.53%
17,C/C(N)=C(/C#N)C(=O)CSc1nnc(Nc2cccc(C)c2C)s1,inactive: -19.1%
18,O=C(COc1ccc(Cl)cc1Cl)NN1C(=O)/C(=C\c2ccc(Cl)cc2)SC1=S,inactive: -1.24%
19,O=C(CSc1c2c(nc3ccccc13)CCC2)N1CCCC1,inactive: 12.7%
20,CC1CC1c1ccc(/C=C(\C#N)C(=O)Nc2cc(Cl)ccc2Cl)o1 (stereo not drawn),inactive: 7.2%
21,CC1CCN(CC(=O)Nc2ccccc2Sc2ccccc2)CC1,inactive: 5.82%
22,CCOc1ccc(NC(=O)COC(=O)CN2CCCCCC2=O)cc1,inactive: 4.51%

row,Compound,growth rescue (activation)
1,O=C(NNC(=O)c1cccs1)c1ccc(F)cc1,inactive: 24.2%
2,COc1ccc(-n2cc(CNCC3CC(=O)N(C4CC4)C3)c(-c3ccccc3Cl)n2)cc1 (stereo not drawn),inactive: 1.04%
3,CC(=O)Nc1ccc(S(=O)(=O)n2cnc3cc(C)c(C)cc32)cc1,inactive: 7.66%
4,O=C(CNc1cc(S(=O)(=O)N2CCOCC2)ccc1N1CCCC1)NCc1ccco1,inactive: 5.82%
5,Nc1nonc1C(=O)NCCN=Cc1ccccc1O,inactive: 9.68%
6,COc1ccc(/C=C/c2cc(C(F)(F)F)on2)cc1,inactive: -8.18%
7,CCOC(=O)CC(=O)N/N=C/c1c(N)n(C)c(=O)n(C)c1=O,inactive: 13.8%
8,c1ccc(-n2cc(CNCCc3cscn3)c(-c3ccc4c(c3)OCO4)n2)cc1,inactive: 27.2%
9,CCc1nc2c(OCCC3CCCCC3)cccn2c1N(C)C(=O)COc1ccccc1,inactive: -2.63%
10,O=C(CC1C(=O)NCCN1CC1CCCCC1)NCCc1ccc(F)cc1 (stereo not drawn),inactive: -2.47%
11,O=C(C1CCCN1S(=O)(=O)c1ccc(Br)cc1)N1CCOCC1 (stereo not drawn),inactive: 6.36%
12,Cc1cccc(C)c1NC(=O)Cn1nnc(S(=O)(=O)c2ccccc2)c1N,inactive: 4.19%
13,O=C(CSc1nnc2ccccn12)Nc1ccc2c(c1)OCO2,inactive: 11.9%
14,O=C(NCC(=O)N1CCN(c2ccc([N+](=O)[O-])cc2)CC1)c1ccco1,inactive: -4.86%
15,N#CC(C#N)=C1C(=O)N(CCN2CCCCC2)c2ccccc21,inactive: -11%
16,O=C(Cn1ncc2c1-c1ccccc1OC2)N1CCN(Cc2ccccc2)CC1,inactive: 22.2%
17,COc1ccc(CCN2CN(S(=O)(=O)c3ccccc3)c3nc4ccccc4nc32)cc1OC,inactive: 33.9%
18,COc1ccc(N2C(=O)C(Cl)=C(Nc3ccccc3O)C2=O)cc1,inactive: 4.24%
19,Cc1ccc(-n2nc(CN3CCOCC3)c(-c3ccccc3)c2N)cc1Cl,inactive: 15.9%
20,S=C(NCc1ccco1)N1CCN(c2ccc(Cl)cc2)CC1,inactive: 0.849%
21,O=C(NC1CCCC1)C(c1cccs1)N(C(=O)c1csnn1)c1ccccc1F (stereo not drawn),inactive: 3.18%
22,COc1cccc(OC)c1C(=O)Oc1ccc2c(c1)O/C(=C\c1ccncc1)C2=O,inactive: -10.2%

row,Compound,growth rescue (activation)
1,CC1=C/C(=N\S(=O)(=O)c2ccccc2)C(C(C)C)=CC1=O,inactive: -5.88%
2,CCOC(=O)NC(=O)C(=CNNc1ncc(C(F)(F)F)cc1Cl)C(=O)NC(=O)OCC,inactive: -10.9%
3,CS(=O)(=O)N(CC(=O)N1CCCC1)Cc1ccc(Cl)cc1,inactive: -4.53%
4,CCC(C)NC(=O)C1(NC(=O)Nc2ccccc2)CCCCC1 (stereo not drawn),inactive: -5.03%
5,CC(=O)Nc1cc(NC(C)=O)cc(C(=O)N2CCCC3CCCCC32)c1 (stereo not drawn),inactive: 14.3%
6,COCCNc1nc(Nc2ccc(C(=O)OC)cc2)c2sccc2n1,inactive: 6.08%
7,O=C(Nc1nnc([C@@H]2C[C@H](O)[C@@H](CO)O2)s1)Nc1cccc2c1CCCC2,inactive: 8.51%
8,CC(=O)c1ccc(N(C)C)cc1,inactive: -10.6%
9,CCN(CC)P(=O)(Nc1ccccc1Br)c1ccc(N(C)C)cc1NC(=O)c1ccco1 (stereo not drawn),inactive: -2.26%
10,O=C1NCCN(Cc2ccc(Cl)c(F)c2)C1CC(=O)N1CCc2ccccc2C1 (stereo not drawn),inactive: -5.46%
11,Cc1cc(C)c2c(c1)c1nnc(SCCN3CCCCC3)nc1n2C,inactive: -7.62%
12,Cc1cc(C)cc(Oc2ccc(-c3nnc(-c4ccccc4)o3)cc2[N+](=O)[O-])c1,inactive: 9.91%
13,CCOC(=O)c1sc(NC(=O)CSc2nnnn2-c2ccc(C)c(C)c2)nc1C,inactive: -8.38%
14,COc1ccc(NC(=S)N(Cc2cccnc2)Cc2cc3cc(OC)c(OC)cc3[nH]c2=O)cc1,inactive: -4.03%
15,CSc1ccc(S(=O)(=O)N2CCC(C(=O)NCc3ccco3)CC2)cc1,inactive: 10.6%
16,O=C(OCc1cc2ccccc2[nH]c1=O)c1ccncc1,inactive: 18.6%
17,Cc1cc(C)c(S(=O)(=O)Nc2ccc(C(N)=O)cc2)c(C)c1,inactive: 11.7%
18,Clc1ccc(-c2ccc(C=Nc3ccc(N4CCOCC4)cc3)o2)c(Cl)c1,inactive: 2.02%
19,COc1ccc(C(=O)Nc2ccc(NC(=O)C3CCCCC3)nc2)cc1,inactive: 4.9%
20,Cc1cccc(NC(=S)N2CCC(NC(=O)c3cccc(F)c3)CC2)c1,inactive: 5.32%
21,COc1cccc(CNC(=O)Cn2ncc3c(=O)oc4ccccc4c32)c1,inactive: 9.61%
22,C=CCn1c(CNC(=O)c2ccco2)nnc1SCC(=O)c1ccc(OC)cc1,inactive: 7.54%

row,Compound,growth rescue (activation)
1,CCOc1ccc(NS(=O)(=O)c2ccc(NS(C)(=O)=O)cc2)cc1,inactive: -6.66%
2,Cc1ccc(-n2c(SCC(=O)NCCN3C(=O)CSC3=O)nnc2-c2ccccc2)cc1C,inactive: -1.65%
3,CN1CCN(c2ccc(CNC(=O)C3Cc4c(-c5ccc(Cl)cc5)ccnc4O3)cc2)CC1 (stereo not drawn),inactive: -10.8%
4,O=Cc1ccc(C(=O)OCC(=O)Nc2ccc(F)cc2F)cc1,inactive: 8.27%
5,COc1ccc(C2C(C(C)=O)=C(C)Nc3ncnn32)cc1[N+](=O)[O-] (stereo not drawn),inactive: -5.42%
6,CSc1nn(-c2ccc(C(=O)OCC(=O)NC(=O)NC(C)C)cc2)c(=S)s1,inactive: -6.24%
7,CCN(Cc1ccccc1)C(=O)COC(=O)CNS(=O)(=O)c1ccc(C)cc1,inactive: 25.2%
8,COc1ccc(-n2nc([N+](=O)[O-])c(=NCc3ccco3)n2O)cc1,inactive: 30.1%
9,CCN(C(=O)COC(=O)/C(C#N)=C/c1ccc(N(C)C)cc1)C1CCS(=O)(=O)C1 (stereo not drawn),inactive: 22%
10,Cc1ccc(S(=O)(=O)N2CCCCC2)c(C)c1NS(C)(=O)=O,inactive: 1.51%
11,COc1ccc(C(=O)Nc2nnc(Cc3ccccc3)s2)c(OC)c1,inactive: -4.82%
12,CCOC(=O)C1(CC2CC2)CCN(Cc2cn(C)c3ccccc23)CC1,inactive: 6.67%
13,O=C(CN1CCOCC1)NNc1c2ccccc2nc2ccccc12,inactive: 4.99%
14,CCc1c(C)sc(NC(=O)C2CC2)c1C(=O)OC(C)C,inactive: 5.37%
15,O=C(CSc1ccccc1F)NC(=O)c1ccccc1Br,inactive: 11.6%
16,CC(C)c1ccc(/C=N/NC(=O)c2ccccn2)cc1,inactive: 15.9%
17,COc1ccc(S(=O)(=O)Nc2ccc(S(=O)(=O)N(C)C)cc2)cc1[N+](=O)[O-],inactive: -21.7%
18,C=CCc1cccc2cc(C(=O)NNC(=O)c3ccncc3)c(=O)oc12,inactive: 2.64%
19,COc1ccc(C(OCC(O)CNCCc2ccc(S(N)(=O)=O)cc2)c2ccc(OC)cc2)cc1 (stereo not drawn),inactive: 16.7%
20,CCOc1ccc(C(=O)OCC(=O)N2CCOCC2)cc1OCC,inactive: 0.0355%
